Data taken from PubChem BioAssay AID504332 (National Center for Advancing Translational Sciences (NCATS), 2011).
Out of some 350,000 compounds screened, about 31,000 (8.9%) were called active. Inconclusive results, whose numbers are uncertain, are shown with a selection of clear calls. Calls follow the shape of the dose curve; as a rule, active = well fitted inhibition curve with a large enough effect; inconclusive = small, poorly fitted or top-dose-only effect; inactive = no such curve, though single readings can be large or run the other way. Potencies beside an inconclusive call are fits to weak or partial responses and may not hold up.

What follows are compounds tested against Histone-lysine N-methyltransferase EHMT2 (Homo sapiens) (UniProt Q96KQ7) (assay: qHTS Assay for Inhibitors of Histone Lysine Methyltransferase G9a). Details: G9a H3K9 monomethylation, AlphaScreen, 2 h; activity, negative = inhibition: at 59 µM (top of the series) unless noted.
Procedure, shortened: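 Enzyme 20 nM + cpd, 15 min RT; add b-H3K9 pep 500 nM / SAM 20 uM; 2 h RT; anti-H3K9me1 Ab 0.5 ug/mL + SA donor / anti-rabbit acceptor beads 20 ug/mL each, 10 min; AlphaScreen read.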
% is scaled to controls: 0 for no effect and ±100 for the full control effect; potency is read from the fitted curve at half-maximal effect; tags tell the direction and shape of the fitted curve.
Also: nearly all actives have a fitted effect of over 75% in size.

UniProt Q96KQ7, sequence (Q96KQ7 whole entry, looked up): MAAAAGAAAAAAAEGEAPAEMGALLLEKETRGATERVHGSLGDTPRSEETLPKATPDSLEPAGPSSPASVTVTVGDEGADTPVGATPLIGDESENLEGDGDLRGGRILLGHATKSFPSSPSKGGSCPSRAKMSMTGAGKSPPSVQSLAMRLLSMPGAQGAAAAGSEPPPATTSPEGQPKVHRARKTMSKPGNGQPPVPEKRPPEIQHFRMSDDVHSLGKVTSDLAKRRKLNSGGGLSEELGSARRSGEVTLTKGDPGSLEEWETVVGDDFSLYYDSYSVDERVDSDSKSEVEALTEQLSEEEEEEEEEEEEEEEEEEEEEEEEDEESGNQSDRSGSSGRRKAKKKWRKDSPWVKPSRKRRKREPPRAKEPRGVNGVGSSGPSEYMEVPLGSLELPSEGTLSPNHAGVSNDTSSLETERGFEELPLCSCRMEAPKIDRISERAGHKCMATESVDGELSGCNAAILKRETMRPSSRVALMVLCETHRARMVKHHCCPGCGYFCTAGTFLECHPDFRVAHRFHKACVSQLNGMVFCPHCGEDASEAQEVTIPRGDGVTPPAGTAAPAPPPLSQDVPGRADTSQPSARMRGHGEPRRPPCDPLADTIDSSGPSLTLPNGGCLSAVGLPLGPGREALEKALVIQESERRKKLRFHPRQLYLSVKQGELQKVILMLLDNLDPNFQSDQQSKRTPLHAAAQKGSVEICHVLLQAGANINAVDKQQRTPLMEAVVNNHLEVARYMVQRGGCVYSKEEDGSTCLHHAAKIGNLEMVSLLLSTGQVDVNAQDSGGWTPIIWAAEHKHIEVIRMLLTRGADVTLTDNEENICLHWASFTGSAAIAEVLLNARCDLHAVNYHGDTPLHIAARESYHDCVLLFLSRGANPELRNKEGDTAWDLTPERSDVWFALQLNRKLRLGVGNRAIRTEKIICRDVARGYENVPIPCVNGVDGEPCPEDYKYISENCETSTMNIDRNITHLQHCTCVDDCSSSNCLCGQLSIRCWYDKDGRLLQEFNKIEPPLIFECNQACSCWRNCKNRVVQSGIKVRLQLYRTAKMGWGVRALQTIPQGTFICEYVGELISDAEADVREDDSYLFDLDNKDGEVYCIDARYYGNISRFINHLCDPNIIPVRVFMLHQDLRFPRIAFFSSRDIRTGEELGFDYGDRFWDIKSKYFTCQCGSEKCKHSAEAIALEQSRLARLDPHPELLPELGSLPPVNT

Compound	Potency	activity, negative = inhibition
O=C(CSc1nccn1C1CCCC1)Nc1ccc(C(F)(F)F)cc1	inconclusive: 28.2 µM [inhibitor, single point]	–
COC(=O)c1cc(NS(=O)(=O)c2ccc(N3CCCCC3)c([N+](=O)[O-])c2)cc(C(=O)OC)c1	–	inconclusive: -77.3% [inhibitor]
COc1cccc(-n2c(Cc3cc(=O)[nH]c(=O)[nH]3)nnc2SCC(=O)NC2CCCCC2)c1	inconclusive: 89.1 µM [inhibitor, single point]	–
C=C1c2cccc(O)c2C(O)=C2C(=O)[C@@]3(O)C(O)=C(C(N)=O)C(=O)[C@@H](N(C)C)[C@@H]3[C@@H](O)[C@H]12	active: 3.98 µM	–
COc1ccc(NC(=O)CN(C)C(=O)C(C)N2C(=O)c3ccccc3C2=O)cc1 (stereo not drawn)	inconclusive: 79.4 µM [inhibitor, single point]	–
NC(=S)NNC(=O)c1cccc(Br)c1	inconclusive: 79.4 µM [inhibitor, single point]	–
Cc1cc(/C=c2/sc3nc4ccccc4n3c2=O)c(C)n1-c1ccccn1	inconclusive: 39.8 µM [inhibitor, single point]	–
CNC(=O)CSc1nccn1Cc1ccc(Cl)cc1	inconclusive: 28.2 µM [inhibitor, partial curve, poor fit]	–
CCOc1ccccc1Nc1nnc(SCc2ccc(C(=O)OC)o2)s1	inconclusive: 35.5 µM [inhibitor, single point]	–
COCCCNc1nc(=S)[nH]c2cc(OC)c(OC)cc12	inactive	–
CCN(CC)CCNC(=O)c1cc(-c2ccco2)nc2ccccc12	active: 31.6 µM	–
COc1ccc(Cc2nnc(SCC(=O)Nc3ccccc3)[nH]c2=O)cc1	inconclusive: 50.1 µM [inhibitor, partial curve, poor fit]	–
CCc1nc(=O)c(-c2ccccc2)c(C)n1-c1ccccc1	inconclusive: 89.1 µM [inhibitor, single point]	–
CCn1cc(C(=O)N2CCCC2)c(=O)c2cc(S(=O)(=O)N3CCC(C)CC3)ccc21	inconclusive: 79.4 µM [inhibitor, single point]	–
CCOC(=O)N1CCN(C(=O)c2ccc(CSc3ccc(Cl)cc3)cc2)CC1	inactive	–
CSc1ncc(C(=O)N2CCN(c3cc(C)ccc3C)CC2)c(C)n1	inactive	–
Cc1ccc(/C=c2\sc3n(c2=O)CN(c2cccc(Br)c2)CN=3)o1	inconclusive: 4.47 µM [inhibitor, single point]	–
Cc1ccc(-n2c(Cc3cccn3C)nnc2SCC(=O)Nc2ccc3c(c2)OCO3)cc1	–	inconclusive: -92.6% [inhibitor]
